Test results: PMC4336329 (PLoS ONE, 2015)
Among all 310,000 compounds or so, about 14,000 (4.5%) showed an effect of 50% or more. The effect is printed as a negative number. This is one part of the list.

biological target: human ether-à-go-go-related gene (hERG) potassium channel (human, UniProt Q12809); experiment: primary screen, population patch clamp on CHO cells stably expressing hERG
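Note: peak tail current of the secondary pulse compared with the same well before compound.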

Sequence of human ether-à-go-go-related gene (hERG) potassium channel (Q12809 whole entry, looked up): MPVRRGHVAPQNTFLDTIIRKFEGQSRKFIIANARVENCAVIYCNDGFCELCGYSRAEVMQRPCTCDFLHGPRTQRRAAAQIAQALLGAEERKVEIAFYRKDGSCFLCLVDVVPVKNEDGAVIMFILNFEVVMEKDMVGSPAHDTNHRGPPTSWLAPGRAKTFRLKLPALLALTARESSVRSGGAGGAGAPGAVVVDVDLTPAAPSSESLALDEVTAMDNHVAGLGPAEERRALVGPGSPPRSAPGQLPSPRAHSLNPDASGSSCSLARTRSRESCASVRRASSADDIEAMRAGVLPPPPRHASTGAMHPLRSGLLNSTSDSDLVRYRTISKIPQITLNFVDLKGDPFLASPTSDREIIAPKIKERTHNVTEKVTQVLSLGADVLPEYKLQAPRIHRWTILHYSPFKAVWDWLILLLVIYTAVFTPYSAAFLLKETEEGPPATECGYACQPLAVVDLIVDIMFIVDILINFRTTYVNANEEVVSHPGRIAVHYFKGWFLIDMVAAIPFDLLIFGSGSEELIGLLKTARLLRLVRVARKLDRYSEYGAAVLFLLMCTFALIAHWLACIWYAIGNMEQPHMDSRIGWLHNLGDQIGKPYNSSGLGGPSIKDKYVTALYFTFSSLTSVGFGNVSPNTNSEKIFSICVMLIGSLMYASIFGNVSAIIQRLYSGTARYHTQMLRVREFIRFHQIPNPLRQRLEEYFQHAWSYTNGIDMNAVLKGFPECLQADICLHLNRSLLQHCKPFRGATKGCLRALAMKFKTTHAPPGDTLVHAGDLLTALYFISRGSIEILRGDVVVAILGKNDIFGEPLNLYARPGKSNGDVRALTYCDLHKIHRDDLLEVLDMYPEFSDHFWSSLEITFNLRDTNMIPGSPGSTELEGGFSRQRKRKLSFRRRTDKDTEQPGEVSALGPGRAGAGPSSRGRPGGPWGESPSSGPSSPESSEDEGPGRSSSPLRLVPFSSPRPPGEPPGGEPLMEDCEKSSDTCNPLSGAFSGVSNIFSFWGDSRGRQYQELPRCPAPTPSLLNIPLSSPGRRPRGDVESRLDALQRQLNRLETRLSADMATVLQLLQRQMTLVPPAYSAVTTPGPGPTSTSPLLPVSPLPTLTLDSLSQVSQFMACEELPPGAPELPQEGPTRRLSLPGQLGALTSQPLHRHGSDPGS

Q: With `Cc1ccc(NC2CCCN(C(=O)c3cc(C(C)C)[nH]n3)C2)cc1C` (centres unmarked) as the compound, how does the “hERG current change (%, negative = inhibition) at 10uM” value read?
A: The value was 7.88%.

Q: With `COc1ccc(NCc2nn(CC(=O)c3ccc(Br)cc3)c3[n+]2CCCCC3)cc1.[Br-]` as the compound, how does the “hERG current change (%, negative = inhibition) at 10uM” value read?
A: Its value is 10.1%.

Q: Which “hERG current change (%, negative = inhibition) at 10uM” value does the source give for `O=C(COC(=O)c1cnccn1)NCCc1ccccc1` here?
A: The value was 17.7%.

Q: Which “hERG current change (%, negative = inhibition) at 10uM” value does the source give for `CC(=O)c1cc2c(cc1NC(=O)CCn1cccc1)OCO2` here?
A: Its value is 2.39%.

Q: How did the “hERG current change (%, negative = inhibition) at 10uM” value turn out when `CCN(C(=O)c1ccc(NC(C)=O)cc1)c1ccccc1C` was run?
A: The value was 10.9%.

Q: `O=C(Cn1nc2ccccc2n1)N/N=C/c1cc([N+](=O)[O-])ccc1O` was tested. Which “hERG current change (%, negative = inhibition) at 10uM” value did it give?
A: Its value is -38.3%.

Q: With `CCCc1nnc(NC(=O)CCC(=O)N2CCN(S(=O)(=O)c3ccc(F)cc3)CC2)s1` as the compound, how does the “hERG current change (%, negative = inhibition) at 10uM” value read?
A: Its value is 2.65%.

Q: With `Cc1onc(-c2c(Cl)cccc2Cl)c1C(=O)Nc1ccc2c(C(F)(F)F)cc(=O)oc2c1` as the compound, how does the “hERG current change (%, negative = inhibition) at 10uM” value read?
A: Its value is -16%.

Q: `O=C(c1scc2c1CCCC2)N1CCCCC1` was tested. Which “hERG current change (%, negative = inhibition) at 10uM” value did it give?
A: Its value is 15.6%.

Q: How did the “hERG current change (%, negative = inhibition) at 10uM” value turn out when `CCCc1cc(=O)[nH]c(SCC(=O)c2cc(C)n(-c3c(C)n(C)n(-c4ccccc4)c3=O)c2C)n1` was run?
A: Its value is 38.6%.

Q: How did the “hERG current change (%, negative = inhibition) at 10uM” value turn out when `CN1/C(=C\C(=O)COC(=O)Cn2nnc(-c3ccccc3)n2)C(C)(C)c2ccccc21` was run?
A: Its value is 5.89%.

Q: With `COc1cccc(NC(=O)[C@H](CC(C)C)NC(=O)N2CCn3c2nc2ccccc23)c1` as the compound, how does the “hERG current change (%, negative = inhibition) at 10uM” value read?
A: The value was 7.14%.

Q: `CSCC[C@H](NC(=O)OC(C)(C)C)c1nnc(SCC(=O)Nc2c(C)cccc2C)o1` was tested. Which “hERG current change (%, negative = inhibition) at 10uM” value did it give?
A: The value was -14.5%.

Q: How did the “hERG current change (%, negative = inhibition) at 10uM” value turn out when `Cc1ccc(C(=O)NC(=S)Nc2ccc(N3CCOCC3)cc2)cc1` was run?
A: The value was 8.78%.

Q: With `Cc1ccc(C2(C)NC(=O)N(CC(=O)N3CCN(S(=O)(=O)c4ccc(Cl)s4)CC3)C2=O)cc1` (centres unmarked) as the compound, how does the “hERG current change (%, negative = inhibition) at 10uM” value read?
A: Its value is -58%.

Q: For `O=C(Nc1ccc([N+](=O)[O-])cc1)c1ccccc1`, which “hERG current change (%, negative = inhibition) at 10uM” value is on record?
A: Its value is 10.7%.

Q: For `CN(CC(=O)NCCc1ccc(F)cc1)Cc1cccc(Cl)c1`, which “hERG current change (%, negative = inhibition) at 10uM” value is on record?
A: Its value is -27.7%.

Q: `CCOC(=O)CSc1nc2cccnc2n1C` was tested. Which “hERG current change (%, negative = inhibition) at 10uM” value did it give?
A: The value was 13.1%.

Q: Which “hERG current change (%, negative = inhibition) at 10uM” value does the source give for `CCc1c(C)nc2ncnn2c1NCc1cccs1` here?
A: Its value is -11.7%.

Q: `O=S(=O)(c1ccc(OC(F)(F)F)cc1)N1CCC(O)(c2cccc(C(F)(F)F)c2)CC1` was tested. Which “hERG current change (%, negative = inhibition) at 10uM” value did it give?
A: The value was -4.35%.

Q: For `O=C(Cn1c(=O)sc2ccccc21)NCc1ccco1`, which “hERG current change (%, negative = inhibition) at 10uM” value is on record?
A: Its value is 0.0638%.

Q: Which “hERG current change (%, negative = inhibition) at 10uM” value does the source give for `O=C1OC(N2CCN(C(=O)C3CCCO3)CC2)c2ccccc21` (centres unmarked) here?
A: Its value is 0.234%.

Q: How did the “hERG current change (%, negative = inhibition) at 10uM” value turn out when `Cc1cnc(C(=O)OCC(=O)Nc2ccc3c(c2)OCCO3)cn1` was run?
A: The value was 10.3%.

Q: How did the “hERG current change (%, negative = inhibition) at 10uM” value turn out when `CCn1c(=O)c2ccccc2n(CC(=O)NCCC2=CCCCC2)c1=O` was run?
A: Its value is 17%.

Q: For `CCC(C)Sc1nc(C)nc2c1c(=O)n(C)c(=O)n2C` (centres unmarked), which “hERG current change (%, negative = inhibition) at 10uM” value is on record?
A: The value was -26.5%.

Q: How did the “hERG current change (%, negative = inhibition) at 10uM” value turn out when `O=C1CCCc2nc(N3CCc4ccccc43)ncc21` was run?
A: The value was -3.87%.

Q: How did the “hERG current change (%, negative = inhibition) at 10uM” value turn out when `COc1ccc(-c2ccc(SCC(=O)N3CC(=O)Nc4ccccc43)nn2)cc1` was run?
A: Its value is -48.2%.

Q: How did the “hERG current change (%, negative = inhibition) at 10uM” value turn out when `COc1ccccc1-c1cc(C(=O)N2CCN(S(=O)(=O)c3ccc(C)cc3)CC2)[nH]n1` was run?
A: Its value is 3.99%.

Q: Which “hERG current change (%, negative = inhibition) at 10uM” value does the source give for `Cc1ccc(S(=O)(=O)N2CCN(C(=O)c3ccc4ccccc4n3)CC2)c(C)c1` here?
A: The value was -34.9%.

Q: With `Cc1ccc(CNC(=O)C2CCCN(c3nc4ccsc4c(=O)s3)C2)cc1` (centres unmarked) as the compound, how does the “hERG current change (%, negative = inhibition) at 10uM” value read?
A: The value was -4.21%.

Q: With `Cc1ccc(CNC(=O)CN(C)S(=O)(=O)c2ccc3c(c2)n(C)c(=O)c(=O)n3C)cc1` as the compound, how does the “hERG current change (%, negative = inhibition) at 10uM” value read?
A: Its value is 13.7%.

Q: How did the “hERG current change (%, negative = inhibition) at 10uM” value turn out when `O=C1CCC(C(=O)Nc2nnc(C3CC3)s2)=NN1` was run?
A: The value was 29.8%.

Q: Which “hERG current change (%, negative = inhibition) at 10uM” value does the source give for `Cc1ccc(Cn2c(C(=O)O)cc3sccc32)cc1` here?
A: Its value is -3.12%.

Q: How did the “hERG current change (%, negative = inhibition) at 10uM” value turn out when `Cc1ccc2ncc(NC(=O)c3ccc(F)cc3)c(=O)n2c1` was run?
A: The value was -12.6%.

Q: For `O=C(O)c1ccc2c(c1)C(=O)N(c1ccc(Cl)cn1)C2=O`, which “hERG current change (%, negative = inhibition) at 10uM” value is on record?
A: The value was 2.65%.

Q: Which “hERG current change (%, negative = inhibition) at 10uM” value does the source give for `COc1ccc(-n2c(SCC(=O)Nc3cc(C)on3)nc3c([nH]c4ccccc43)c2=O)cc1` here?
A: The value was 8.92%.

Q: For `Cc1nnc(-c2ccccc2)[nH]c1=O`, which “hERG current change (%, negative = inhibition) at 10uM” value is on record?
A: Its value is 18.7%.

Q: How did the “hERG current change (%, negative = inhibition) at 10uM” value turn out when `CCOC(=O)C(CCCOc1cccc(CC)c1)C(=O)OCC` was run?
A: Its value is 5.61%.

Q: Which “hERG current change (%, negative = inhibition) at 10uM” value does the source give for `NS(=O)(=O)c1ccc(CCNc2ccc(C(F)(F)F)cn2)cc1` here?
A: Its value is -7.34%.

Q: `COC(=O)[C@@H]1Cc2c([nH]c3ccccc23)C2CCC(=O)N21` (some centres unmarked) was tested. Which “hERG current change (%, negative = inhibition) at 10uM” value did it give?
A: The value was 18.5%.

Q: `O=C(CSc1nc2ccccc2c(=O)[nH]1)Nc1ccc(N2CCOCC2)c(Cl)c1` was tested. Which “hERG current change (%, negative = inhibition) at 10uM” value did it give?
A: Its value is 12.7%.

Q: For `Cc1ccc(-c2n[nH]c(=S)n2/N=C/c2sccc2C)cc1`, which “hERG current change (%, negative = inhibition) at 10uM” value is on record?
A: The value was 17.4%.

Q: For `O=C(NC1CCCCCC1)c1ccc(-n2cnnc2)cc1`, which “hERG current change (%, negative = inhibition) at 10uM” value is on record?
A: The value was 8.15%.

Q: `Cc1ccc(SCC(=O)O/N=C(\N)c2ccncc2)cc1` was tested. Which “hERG current change (%, negative = inhibition) at 10uM” value did it give?
A: The value was -8.1%.

Q: `CCCC(C(=O)NC1CCCC1)N(C(=O)Cn1nnc(-c2ccc(C)o2)n1)C1CCCC1` (centres unmarked) was tested. Which “hERG current change (%, negative = inhibition) at 10uM” value did it give?
A: Its value is -15.3%.

Q: Which “hERG current change (%, negative = inhibition) at 10uM” value does the source give for `CC(Sc1nc2ccccc2c(=O)n1C)C(=O)NC1CCCCC1C` (centres unmarked) here?
A: The value was 5.87%.

Q: Which “hERG current change (%, negative = inhibition) at 10uM” value does the source give for `Cc1nc(NC(=O)C2CC2)sc1C(=O)Nc1ccc(Br)cc1` here?
A: The value was 45.5%.

Q: For `O=C(c1ccccc1)N1CCC(c2nc3c(nnn3Cc3ccccc3Cl)c(=O)[nH]2)CC1`, which “hERG current change (%, negative = inhibition) at 10uM” value is on record?
A: Its value is 10.1%.

Q: For `O=C(C1CCCN(S(=O)(=O)c2cccc3nonc23)C1)N1CCN(c2ccccc2)CC1` (centres unmarked), which “hERG current change (%, negative = inhibition) at 10uM” value is on record?
A: Its value is -42.3%.

Q: `Cc1cccc(NC(=O)CCS(=O)(=O)c2ccc(Br)cc2)c1` was tested. Which “hERG current change (%, negative = inhibition) at 10uM” value did it give?
A: The value was -9.57%.

Q: How did the “hERG current change (%, negative = inhibition) at 10uM” value turn out when `Cc1c(-c2ccccn2)c(=O)[nH]n1-c1ccc(F)cc1` was run?
A: The value was 8.75%.

Q: Which “hERG current change (%, negative = inhibition) at 10uM” value does the source give for `C=CCNC(=S)NNC(=O)c1cccn(Cc2ccc(Cl)cc2)c1=O` here?
A: Its value is -27.1%.

Q: For `O=[N+]([O-])c1cccnc1N1CCN(c2ccccc2F)CC1`, which “hERG current change (%, negative = inhibition) at 10uM” value is on record?
A: Its value is -6.76%.

Q: Which “hERG current change (%, negative = inhibition) at 10uM” value does the source give for `CN(C(=O)CC1C(=O)NCCN1CC1CCCCC1)C1CCOCC1` (centres unmarked) here?
A: The value was 16.1%.

Q: For `Cc1ccc(C(=O)COC(=O)C2CC(=O)N(c3nc(-c4ccccc4)cs3)C2)cc1C` (centres unmarked), which “hERG current change (%, negative = inhibition) at 10uM” value is on record?
A: Its value is -2.72%.

Q: Which “hERG current change (%, negative = inhibition) at 10uM” value does the source give for `CC(c1ccccc1)N1CNc2c(c(=O)n(C)c(=O)n2C)C1` (centres unmarked) here?
A: Its value is 8.25%.
